Patent publication US20260242448A1 (INSTITUTE OF MICROBIOLOGY CHINESE ACADEMY OF SCIENCES, published 2026)

Tests used:
[1] = target: T1, S protein of the SARS-CoV-2 prototype strain on pseudo-virus (SARS-CoV-2 prototype strain); test: cell-based or functional assay
[2] = target: T1, S protein of the SARS-CoV-2 prototype …; test: cell-based or functional assay; remark: listed apart in the source

B1: bispecific antibody protein DIA-19 (bispecific antibody)
chain: QITLKESGPTLVKPTQTLTLTCTFSGFSLSTSGVGVAWIRQPPGKALEWLALIYWDNDKRSSPSLNNRLTITKDTSKNQVVLTMTNMDPEDTATYYCAHFFSHYDSSNYYYGSWFDPWGQGTLVTVSSGGGGSGGGGS[letters of about 100 residues omitted]FTFGPGTKVDIKGGGGSGGGGSGGGGSGGGGSGGGGSEVQLVESGGGVVQPGGSLRLSCAVSGFTFDDYAMHWVRQAPGKGLDWVSLISGDGSYTYYADSVKGRFTISRDSSKNSLYLQMNSLRTEDTALYYCAKAQTPTLWWLQDAFDIWGQGTMVTVSSGGGGSGGGGSEIVLTQSPGTLSLSPGERATLSCRASQSFDSRYLGWYQQKSGQAPRLLIYGASSRATGIPDRFSGSGSGTDFTLTISRLEPEDFAVYYCQQFGDSPFTFGQGTKLEIKGGGGS[letters of human IgG1 Fc with changes omitted]
- Neutralization Effects (IC50) against SARS-CoV-2 pseudo-viruses [1]: 0.849 ng/mL
- Neutralization activity (IC50) against pseudo-virus [2]: 0.734 ng/mL
